In PMC4336329 (PLoS ONE, 2015):
Out of some 310,000 compounds screened, about 14,000 (4.5%) showed an effect of 50% or more. Effects have a minus sign here. The list shows a part of the results.

Target: human ether-à-go-go-related gene (hERG) potassium channel (human, UniProt Q12809)
Test: primary screen, population patch clamp on CHO cells stably expressing hERG
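Also: peak tail current of the secondary pulse compared with the same well before compound.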

Sequence of human ether-à-go-go-related gene (hERG) potassium channel (Q12809 whole entry, looked up): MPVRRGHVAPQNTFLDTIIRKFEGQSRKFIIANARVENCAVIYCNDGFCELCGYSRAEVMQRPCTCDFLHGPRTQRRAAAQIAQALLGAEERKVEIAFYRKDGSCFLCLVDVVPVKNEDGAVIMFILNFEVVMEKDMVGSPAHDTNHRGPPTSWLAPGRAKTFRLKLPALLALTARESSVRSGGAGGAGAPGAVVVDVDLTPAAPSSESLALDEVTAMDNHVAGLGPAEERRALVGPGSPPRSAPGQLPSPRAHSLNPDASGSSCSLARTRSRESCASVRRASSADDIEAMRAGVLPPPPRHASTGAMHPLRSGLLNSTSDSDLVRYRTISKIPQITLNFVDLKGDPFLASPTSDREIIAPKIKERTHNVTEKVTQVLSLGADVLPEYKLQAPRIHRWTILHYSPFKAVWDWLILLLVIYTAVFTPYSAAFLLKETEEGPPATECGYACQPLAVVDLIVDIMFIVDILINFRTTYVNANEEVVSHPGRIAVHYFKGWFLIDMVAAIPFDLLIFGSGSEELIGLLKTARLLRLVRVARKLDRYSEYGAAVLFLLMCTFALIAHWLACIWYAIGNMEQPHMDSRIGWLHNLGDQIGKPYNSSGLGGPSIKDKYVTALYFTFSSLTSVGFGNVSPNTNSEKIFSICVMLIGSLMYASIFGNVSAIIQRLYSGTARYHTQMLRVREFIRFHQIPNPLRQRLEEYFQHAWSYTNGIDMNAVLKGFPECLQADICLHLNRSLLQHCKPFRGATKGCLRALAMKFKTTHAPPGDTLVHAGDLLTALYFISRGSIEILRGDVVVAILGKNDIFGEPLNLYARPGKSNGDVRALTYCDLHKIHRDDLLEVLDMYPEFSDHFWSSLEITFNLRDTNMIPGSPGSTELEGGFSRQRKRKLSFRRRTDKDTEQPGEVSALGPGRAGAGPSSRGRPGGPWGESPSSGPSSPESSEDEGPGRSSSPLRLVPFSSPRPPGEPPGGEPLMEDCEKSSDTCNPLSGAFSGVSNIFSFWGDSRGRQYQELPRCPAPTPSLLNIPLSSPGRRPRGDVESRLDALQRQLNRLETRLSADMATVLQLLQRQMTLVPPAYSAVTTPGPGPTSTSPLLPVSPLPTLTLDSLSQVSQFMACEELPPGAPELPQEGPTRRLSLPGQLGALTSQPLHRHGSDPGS

Structure (SMILES)	hERG current change (%, negative = inhibition) at 10uM
O=C1NC(=Nc2cccnc2)S/C1=C\c1cccc(F)c1	-2.05%
CCOc1ccc(CN2CCNC(=O)C2CC(=O)NCC2CCOCC2)cc1 (centres unmarked)	7.02%
CCOC(=O)CSc1ccc2ccccc2n1	-19.5%
Cc1ccc(C)c(SCC(=O)Nc2cccc(S(=O)(=O)NC3=NCCCCC3)c2)c1	-11.1%
CCOc1ccccc1NC(=S)NCc1ccccc1	7.29%
O=C(Cn1c(NCCO)nc2ccccc21)NCC(F)(F)F	10.4%
CN(C)S(=O)(=O)NCCNC(=O)c1cc(OCC(F)(F)F)ccc1OCC(F)(F)F	4.32%
CCN(c1ccccc1)S(=O)(=O)c1cccc(C(=O)NCc2ccccc2CN2CCOCC2)c1	-37.6%
COc1ccc(COC(=O)C2=C(C)NC(=O)NC2c2cccc(Br)c2)cc1 (centres unmarked)	16.6%
O=C(NCc1ccccc1)c1ccc(CS(=O)(=O)Cc2ccccc2F)o1	-5.62%
O=C(CCN1C(=O)/C(=C/C=C/c2ccccc2)SC1=S)Nc1ccccn1	21.5%
N#C/C(=C(/O)CSc1ncn[nH]1)c1nc2ccccc2[nH]1	5.68%
Cc1ccc(S(=O)(=O)NCC(=O)NCC2COc3ccccc3O2)cc1C (centres unmarked)	-9.72%
COc1cc(Br)cc(Br)c1OCC(=O)N/N=C/c1c(C)n(C)n(-c2ccccc2)c1=O	-23.1%
CCOC(=O)Cn1c(=N)n(CCOc2ccc(Br)cc2)c2ccccc21.Cl	-69.5%
COc1cc(C(=O)Nc2ncccc2C)ccc1OCC(=O)N1CCOCC1	-4.78%
C/C(CCc1ccccc1)=N/NC(=O)C(=O)NC(C)c1ccccc1 (centres unmarked)	-7.23%
COC(=O)C1=C(c2ccc(OC(F)(F)F)cc2)C[C@@H]2CC[C@H]1N2C(=O)NC1Cc2ccccc2C1	-13.6%
O=C1NC2(CCCCC2)C(=O)N1c1ccc(Cl)cc1	22.3%
C/C(=N\NC(=S)Nc1cc(S(=O)(=O)N2CCOCC2)ccc1Cl)c1ccccc1F	0.315%
O=C1OC(c2ccc(F)cc2)=N/C1=C\C=C/c1ccccc1	10.9%
Cc1ccc(-c2nc(CS(=O)(=O)CC(=O)N3CCc4ccccc4C3)c(C)o2)cc1	-16%

Structure (SMILES)	hERG current change (%, negative = inhibition) at 10uM
CCCCn1c(N)c(N(Cc2ccccc2OC)C(=O)C(C)Oc2ccc(Cl)cc2)c(=O)[nH]c1=O (centres unmarked)	10.7%
O=c1c2c3c(sc2n(CCN2CCOCC2)c(=O)n1Cc1ccco1)CCCCC3	-44.3%
Br.CC(C)(C)c1ccc(C2=CSC3=NCCN23)cc1	-55.8%
COC(=O)c1cc2c(ccn2-c2ccc(F)cc2)n1CC(=O)OC(C)C	27.3%
CC(=O)c1c(C)[nH]c(C(=O)OCC(=O)c2c[nH]c3ccccc23)c1C	10.4%
COc1ccc(C)cc1S(=O)(=O)Nc1ccccc1	-7.39%
Cc1cccc(N2CCN(C(=O)CCC(=O)N3CC(C)Oc4ccc(C)cc43)CC2C)c1 (centres unmarked)	-37.8%
CCCOc1ccc(CN(CCO)CCO)cc1[N+](=O)[O-].Cl	-54.2%
Cc1ccc(S(=O)(=O)C2(C(=O)N3CCN(c4cc(C)ccc4C)CC3)CC2)cc1	-15.2%
O=C(NCc1ccccc1)c1cccc(S(=O)(=O)N2CCOCC2)c1	0.662%
COc1cccc(NC(=S)Nc2ccc(O)cc2)c1	15.3%
CC(=O)C1=C(c2ccccc2)NC(=O)NC1c1ccccc1OCC#N (centres unmarked)	2.5%
CS(=O)(=O)Nc1ccc(C(=O)NCCSCc2c(F)cccc2Cl)cc1	-57.7%
Cc1nc2ccc(NC(=O)c3c(-c4ccccc4)noc3C)cc2s1	-9.2%
CC(C)Cn1c(=S)[nH]c2ccccc2c1=O	22%
COc1ccc(C(C)=O)cc1COC(=O)c1cccnc1SC	5.68%
CC(=O)/C(=N/Nc1cccc(C)c1)N1CCOCC1.Cl	10.5%
CCC(C)N1C(=O)CCC1C(=O)N1CCN(c2ccc(F)cc2)CC1 (centres unmarked)	-28.3%
Cc1ccc(C)c(NC(=S)NC(NC(=O)/C=C/c2ccccc2)C(Cl)(Cl)Cl)c1 (centres unmarked)	13.7%
CCOC(=O)CSc1nc2cc(OCC)ccc2cc1C#N	-4.45%
CCCC(=O)c1ccc(N2CCN(C(=O)c3ccccc3)CC2)c(F)c1	-66.7%
COC(=O)C1=CN(CCCN2CCCC2=O)C=C(C(=O)OC)C1c1ccccc1C(F)(F)F	-57.1%

Structure (SMILES)	hERG current change (%, negative = inhibition) at 10uM
COc1ccccc1CC(=O)Nc1cc(Cl)ccc1O	7.68%
CN(C(=O)Cc1csc(-c2ccccc2)n1)c1c(N)n(Cc2ccccc2)c(=O)[nH]c1=O	15.7%
Cc1ccc(OCc2ccc(C(=O)Nc3nc4ccccc4n3C)o2)c([N+](=O)[O-])c1	22.9%
Cc1ccccc1N1CC(C(=O)Nc2nnc(SCc3cccnc3)s2)CC1=O (centres unmarked)	1.55%
Cc1ccc(-c2csc(NC(=O)C3CC=CCC3C(=O)O)c2C(=O)OC(C)C)cc1 (centres unmarked)	-7.86%
COc1ccc(S(=O)(=O)N2CCN(CC(=O)N3CCc4ccccc4C3)CC2)cc1OC	-18.5%
CN(C)C(=O)Oc1ccc(-c2cn3cc(Cl)ccc3n2)cc1	8.92%
CCN(CC(=O)Nc1ccc(OC)cc1)C(=O)c1cc(-c2cccs2)nn1-c1ccccc1	-15.4%
COCCNC(=O)C(=O)N/N=C(\C)CC(=O)Nc1ccc2c(c1)OCO2	11.9%
CC1(C)NC(=O)N(CC(=O)Nc2nc(-c3ccc(F)cc3)cs2)C1=O	-23.9%
COc1cccc2c1OC1(C)CC2N(C(=O)c2ccco2)C(=S)N1c1ccc(F)cc1 (centres unmarked)	1.8%
COC(C(=O)Nc1ccccc1F)c1ccccc1 (centres unmarked)	9.45%
O=C(c1ccccc1Cl)N1CCC(n2cccc2)CC1	5%
CCOC(=O)N1CCN(Cc2nc(C3CC3)no2)CC1	13.8%
Cc1c(C)c2ccc(OC(C)C(=O)N[C@@H](Cc3c[nH]c4ccccc34)C(=O)O)c(C)c2oc1=O (some centres unmarked)	7.27%
CC(=O)O/N=C(/C)c1ncc(C(F)(F)F)cc1N1CCOCC1	16.5%
Cc1cc(C)cc(NC(=O)CCn2cnc3cc(C)c(C)cc32)c1	-13.9%
COc1ccc(/C=N/NC(=O)c2cc(Br)ccc2O)cc1Cn1cc(Cl)cn1	-34.1%
O=C(COc1ccc(Cl)cc1)Nc1nc(-c2cccs2)cs1	11%
CC12CCC(=O)N1c1ccccc1C(=O)N2c1ccccc1 (centres unmarked)	-9.9%
Cc1cc(C)n(-c2ccc(C(=O)Nc3ccccc3N3CCOCC3)cc2)n1	-18.7%
COc1ccc(NC(=O)COc2ncnc3ccccc23)cc1S(=O)(=O)N1CCOCC1	19.1%

Structure (SMILES)	hERG current change (%, negative = inhibition) at 10uM
COc1cccc(N2CCN(C(=O)C3CCN(S(=O)(=O)c4ccc5c(c4)CC(C)N5C(C)=O)CC3)CC2)c1 (centres unmarked)	-17.1%
Cc1cc(N)n2nc(-c3ccccc3)cc2n1	-6.74%
N/C(CN1CCCC1=O)=N\OC(=O)c1ccc(Cl)c(Cl)c1	-22.8%
CCCN1C(=O)c2ccccc2NC1c1ccc(C)cc1 (centres unmarked)	-4.35%
O=c1[nH]c2ccc(NCc3ccc(OCc4ccccc4Cl)cc3)cc2[nH]1	29.4%
CCc1ccc(NC(=O)Cc2cn(C)c3ccccc23)cc1	12.4%
CCN(CC(=O)Nc1ccc(NC(C)=O)cc1)C(=O)c1ccc2c(c1)S(=O)(=O)N=C1CCCCCN12	7.78%
Cc1c([N+](=O)[O-])c(C(=O)Nc2ccc3c(c2)OCCO3)nn1C	12.2%
COc1cc2[nH]c(C(=O)N3CCc4ccccc43)cc2c(OC)c1OC	-3.68%
O=C(c1cccc(S(=O)(=O)NCc2ccccc2)c1)N1CCCCC1	-9.43%
COc1ccc(CN2CC[C@H]3C=CC[C@@H](C(=O)Nc4ccc(Cl)c(C(F)(F)F)c4)[C@H]3C2=O)cc1OC	-29.6%
CN(C)S(=O)(=O)N1CCC(Oc2ccc(C(=O)NCc3cnn(C)c3)cc2)CC1	14.1%
CC1C=CCC2C(=O)N(c3ccc(Cl)cc3O)C(=O)C12 (centres unmarked)	-2.47%
CC(c1ccccc1)(c1ccccc1)c1ccncc1	-0.938%
CCN(CC)CCCNC(=O)C1CCN(c2ncnc3c2sc2cccc(F)c23)CC1	-50.2%
CCCCN1CNC(=S)N(c2ccc(C(=O)OCC)cc2)C1	2.62%
CCOCCCNC(=O)C(NC(=O)c1ccc(NC(C)=O)cc1)c1ccc(OC)cc1 (centres unmarked)	-2.69%
COc1cc(/C=N/n2c(C)n[nH]c2=S)ccc1OCc1ccc(F)cc1	6.9%
O=C(NCC(c1ccc(F)cc1)N1CCOCC1)c1c(F)cccc1F (centres unmarked)	2.46%
CNC(=O)c1ccc(-c2sc3nc(N4CCOCC4)c4c(c3c2N)CC(C)(C)OC4)o1	0.721%
